PubChem BioAssay (Tox21)
Inconclusive results, whose numbers are uncertain, are shown with a selection of clear calls. Entries that show only a call come without a potency. For some assays here: Potencies beside an inconclusive call are fits to weak or partial responses and may not hold up. The source made the active and inactive calls. Unless noted, calls come from the whole dose curve; as a rule, active = well fitted curve in the direction sought with a large enough effect in the repeat runs; inconclusive = weak or mixed curves; inactive = no such curve, though single readings can be large; an effect the other way counts as inactive or inconclusive.

Key:
[1] = qHTS assay to identify small molecule antagonists of the estrogen related receptor signaling pathway with the pleiotropic PPARgamma coactivator (PGC) cell viability counter screen (AID 1224822; note: potency is the fitted concentration of half-maximal effect)
Method in brief: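 PGC/ERR cells were seeded at 2,000 cells/well, rested 6 h at 37 C/5% CO2, then given compounds in DMSO by pin tool and incubated 17.5 h at 37 C. Viability came from CellTiter-Fluor fluorescence after 30 min.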

[2] = qHTS assay for small molecule disruptors of the mitochondrial membrane potential (AID 720635); settings: HepG2 mitochondrial membrane potential, Mito-MPS dye ratio; ratio activity, negative = MMP loss: at 83.2 µM (top of the series) unless noted
Method in brief: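 Mitochondrial membrane potential tracked with Mito-MPS dye, red aggregates (ex 540/em 590 nm) against green monomers (ex 490/em 535 nm). Compound treatment 1 hr at 37C, dye 30 min in HepG2.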

[3] = target: Glucocorticoid receptor (Homo sapiens) (UniProt P04150); experiment: qHTS assay to identify small molecule antagonists of the glucocorticoid receptor (GR) signaling pathway (AID 720692; active = well fitted inhibition curve with a large enough effect in the signal ratio in the repeat runs, not every such curve was filed as active; inconclusive = weak or mixed curves, or effect the other way; inactive = no such curve, though single readings can be large or run the other way; the % refers to the signal ratio; note: potency is the fitted concentration of half-maximal effect); settings: GR-bla HeLa, beta-lactamase FRET ratio, dexamethasone-stimulated, 18 h; activity change, negative = inhibition: at 58.5 µM (top of the series) unless noted
Sequence of UniProt P04150 (P04150 whole entry, looked up): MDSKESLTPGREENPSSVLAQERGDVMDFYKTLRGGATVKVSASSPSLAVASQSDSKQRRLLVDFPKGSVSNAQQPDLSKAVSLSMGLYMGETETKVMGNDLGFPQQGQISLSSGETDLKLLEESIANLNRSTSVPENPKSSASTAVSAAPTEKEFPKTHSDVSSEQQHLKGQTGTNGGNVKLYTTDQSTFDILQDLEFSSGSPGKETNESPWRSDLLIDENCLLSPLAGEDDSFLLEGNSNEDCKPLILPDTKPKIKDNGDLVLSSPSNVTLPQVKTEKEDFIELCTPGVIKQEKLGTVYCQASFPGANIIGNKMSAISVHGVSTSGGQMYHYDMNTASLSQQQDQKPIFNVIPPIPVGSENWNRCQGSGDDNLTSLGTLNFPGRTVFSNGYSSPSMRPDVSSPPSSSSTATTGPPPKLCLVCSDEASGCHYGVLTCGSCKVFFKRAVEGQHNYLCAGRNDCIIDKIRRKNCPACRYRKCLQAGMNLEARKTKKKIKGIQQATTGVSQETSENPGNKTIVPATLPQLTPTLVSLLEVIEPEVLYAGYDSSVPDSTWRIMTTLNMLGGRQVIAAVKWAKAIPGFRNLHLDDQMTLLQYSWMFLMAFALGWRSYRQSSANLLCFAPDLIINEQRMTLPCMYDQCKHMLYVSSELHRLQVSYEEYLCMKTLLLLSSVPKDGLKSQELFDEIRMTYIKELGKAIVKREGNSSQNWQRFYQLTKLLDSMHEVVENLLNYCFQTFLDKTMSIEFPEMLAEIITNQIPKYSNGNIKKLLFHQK
Method in brief: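 GR-bla HeLa cells (beta-lactamase reporter under glucocorticoid response element) were pre-plated 4 h at 37 C, treated with compounds plus 5 nM dexamethasone (final) for 18 h, then read by LiveBLAzer B/G FRET fluorescence after 2 h.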

[4] = qHTS assay to identify small molecule antagonists of the thyroid receptor (TR) signaling pathway - cell viability counter screen (AID 743064); settings: GH3.TRE-Luc viability, CellTiter-Fluor, 24 h; activity change, negative = cytotoxic: at 70.3 µM (top of the series) unless noted; note: potency is the fitted concentration of half-maximal effect; nearly all actives have a fitted effect of over 50% in size
Method in brief: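 In-well cytotoxicity read by CellTiter-Fluor (30 min, 37 C) following 23.5 h exposure of GH3 cells bearing a TRE-luciferase sensor. Compounds were added alongside 1 nM (final) T3 to drive TR transactivation.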

[5] = qHTS assay to identify small molecule antagonists of the thyroid receptor (TR) signaling pathway (AID 743065); note: potency is the fitted concentration of half-maximal effect; nearly all actives have a fitted effect of over 55% in size
Method in brief: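 Antagonism measured as loss of luciferase signal in GH3 cells stably carrying a TRE-luciferase reporter, co-treated with compound and T3 (1 nM final) for 23.5 h at 37 C. Viability was read in the same well by CellTiter-Fluor.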

[6] = qHTS assay to identify aromatase inhibitors - cell viability counter screen (AID 743084); settings: MCF-7 aro ERE viability, CellTiter-Fluor, 24 h; activity change, negative = cytotoxicity: at 70.3 µM (top of the series) unless noted;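 note: cells stimulated with testosterone during compound exposure; nearly all actives have a fitted effect of over 55% in size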
[7] = qHTS assay to identify small molecule antagonists of the peroxisome proliferator-activated receptor delta (PPARd) signaling pathway - cell viability counter screen (AID 743213); settings: PPARd-bla HEK293H viability, CellTiter-Glo luminescence, 17 h; viability change, negative = cytotoxic: at 62 µM (top of the series) unless noted; note: nearly all actives have a fitted effect of over 50% in size
Method in brief: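 Agonist-stimulated (L165041, 300 nM final) HEK293H PPARd UAS-bla cells are exposed to compounds for 17 h at 37 C, and ATP-based luminescence (CellTiter-Glo) from the same wells reports cytotoxicity.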

[8] = qHTS assay to identify small molecule antagonists of the farnesoid-X-receptor (FXR) signaling pathway - cell viability counter screen (AID 743221; active = well fitted cell-killing curve with a large enough effect in the repeat runs, not every such curve was filed as active; inconclusive = weak or mixed curves, or effect the other way; inactive = no such curve, though single readings can be large or run the other way; note: nearly all actives have a fitted effect of over 50% in size); settings: FXR-bla HEK293T viability, CellTiter-Glo luminescence, 16 h; activity change, negative = cytotoxicity: at 62.6 µM (top of the series) unless noted
Method in brief: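 Cytotoxicity counter screen run in the FXR-bla reporter wells: HEK 293T cells exposed to compound with 50 uM (final) chenodeoxycholic acid for 16 h, 37 C, then viability measured by CellTiter-Glo luminescence after 30 min, room temperature.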

[9] = target: Vitamin D3 receptor (Homo sapiens) (UniProt P11473); experiment: qHTS assay to identify small molecule antagonists of the vitamin D receptor (VDR) signaling pathway (AID 743223; active = well fitted inhibition curve with a large enough effect in the signal ratio in the repeat runs, not every such curve was filed as active; inconclusive = weak or mixed curves, or effect the other way; inactive = no such curve, though single readings can be large or run the other way; the % refers to the signal ratio); settings: VDR-UAS-bla HEK293T, beta-lactamase FRET ratio, 16 h; activity change, negative = inhibition: at 61 µM (top of the series) unless noted
Sequence of UniProt P11473 (P11473 whole entry, looked up): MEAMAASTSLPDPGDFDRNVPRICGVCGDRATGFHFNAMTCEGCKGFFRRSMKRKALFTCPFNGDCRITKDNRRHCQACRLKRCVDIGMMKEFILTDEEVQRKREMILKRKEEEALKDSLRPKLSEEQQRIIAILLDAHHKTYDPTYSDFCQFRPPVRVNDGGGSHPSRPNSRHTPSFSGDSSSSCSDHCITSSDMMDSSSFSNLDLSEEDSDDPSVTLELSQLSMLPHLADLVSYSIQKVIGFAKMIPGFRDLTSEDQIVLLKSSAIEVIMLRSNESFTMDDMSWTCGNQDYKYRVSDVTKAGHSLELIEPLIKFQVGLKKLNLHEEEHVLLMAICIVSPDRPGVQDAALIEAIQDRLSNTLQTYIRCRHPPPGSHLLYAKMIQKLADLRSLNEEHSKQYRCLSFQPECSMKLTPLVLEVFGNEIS
Method in brief: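 Antagonist mode: compound added to VDR-bla cells alongside agonist 1alpha,25-dihydroxyvitamin D3 (3 nM final), incubation 16 h at 37C. Read-out is LiveBLAzer FRET fluorescence, 2 h at room temperature.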

[10] = qHTS assay to identify small molecule antagonists of the vitamin D receptor (VDR) signaling pathway - cell viability counter screen (AID 743225); settings: VDR-bla HEK293T viability, CellTiter-Glo luminescence, 16 h; viability change, negative = cytotoxic: at 61 µM (top of the series) unless noted; note: nearly all actives have a fitted effect of over 50% in size
Method in brief: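 Cytotoxicity counter screen read by CellTiter-Glo luminescence (30 min, room temperature) in the same wells as the VDR-bla antagonist readout. HEK 293T VDR-UAS-bla cells had 16 h at 37C with compound and 3 nM (final) 1-alpha,25-dihydroxyvitamin D3, then 2 h with FRET substrate.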

[11] = qHTS assay to identify small molecule antagonists of the estrogen related receptor (ERR) signaling pathway from Tox21 library - cell viability counter screen (AID 1224834); note: nearly all actives have a fitted effect of over 30% in size
Method in brief: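 ERR reporter cells were plated 6 h before compound addition, then exposed to test compounds in DMSO for 17.5 h at 37 C. Viability was read as CellTiter-Fluor fluorescence after a 30-minute incubation at 37 C.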

[12] = target: Luciferin 4-monooxygenase (Photinus pyralis) (UniProt P08659); experiment: qHTS assay to identify small molecule inhibitors of firefly luciferase (AID 1224835); note: potency is the fitted concentration of half-maximal effect; nearly all actives have a fitted effect of over 25% in size
Sequence of UniProt P08659 (P08659 whole entry, looked up): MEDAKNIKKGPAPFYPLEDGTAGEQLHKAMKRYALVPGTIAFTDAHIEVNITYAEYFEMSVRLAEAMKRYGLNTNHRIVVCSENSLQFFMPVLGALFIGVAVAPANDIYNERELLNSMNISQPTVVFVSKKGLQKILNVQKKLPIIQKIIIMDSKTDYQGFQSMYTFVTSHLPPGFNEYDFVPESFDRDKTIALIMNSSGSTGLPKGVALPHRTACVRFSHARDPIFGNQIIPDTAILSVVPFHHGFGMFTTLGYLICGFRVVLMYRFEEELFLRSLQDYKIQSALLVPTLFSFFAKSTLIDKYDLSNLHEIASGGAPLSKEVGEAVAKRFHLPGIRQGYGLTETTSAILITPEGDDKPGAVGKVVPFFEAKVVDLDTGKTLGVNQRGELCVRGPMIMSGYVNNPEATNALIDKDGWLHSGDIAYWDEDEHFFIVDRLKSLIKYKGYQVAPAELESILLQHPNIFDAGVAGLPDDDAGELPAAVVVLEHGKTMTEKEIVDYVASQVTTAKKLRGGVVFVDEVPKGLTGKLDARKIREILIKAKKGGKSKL
Method in brief: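 Inhibition of purified Photinus luciferase is measured by luminescence. Substrate levels (D-luciferin, ATP) sit at their KM values. Each compound is tested in a concentration series.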

[13] = qHTS RealTime-Glo MT Cell Viability Assay in HepG2 cells - 32 hour (AID 1224877); note: nearly all actives have a fitted effect of over 55% in size
Method in brief: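 HepG2 suspension premixed with RealTime-Glo reagents is plated at 600 cells per well and left 5 h at 37 C/5% CO2. Compounds in DMSO then go in, and bioluminescence reflecting viable cell number is recorded over 40 h.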

[14] = qHTS assay to identify small molecule antagonists of the androgen receptor (AR) signaling pathway using the MDA cell line in the presence of 0.5 nM R1881 - cell viability counter screen (AID 1259242); note: nearly all actives have a fitted effect of over 45% in size
Method in brief: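 MDA-kb2 cells (human breast carcinoma, stably carrying MMTV-luciferase reporter) were exposed to compounds with 0.5 nM R1881 (final) for 16 hr at 37C, 0% CO2; viability then read as live-cell protease fluorescence (CellTiter-Fluor, 30 min) in the same wells.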

[15] = qHTS assay to identify small molecule agonists of the androgen receptor (AR) signaling pathway in the presence of an antagonist - cell viability counter screen (AID 1259379); note: nearly all actives have a fitted effect of over 25% in size
Method in brief: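 MDA-kb2 human breast carcinoma cells (stable MMTV-luciferase, AR/GR responsive) were seeded 3,000 cells/well, pre-incubated 5 hr at 37C without CO2, then given 3.0uM nilutamide and compounds at 15 concentrations for 16 hr. Viability was read by CellTiter-Fluor fluorescence.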

[16] = Caspase-3/7 induction in CHO-K1 cells by small molecules, qHTS cell viability counter screen (AID 1346979); note: nearly all actives have a fitted effect of over 35% in size
Method in brief: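 Cytotoxicity counter screen: CellTiter-Fluor added to compound-treated wild-type CHO-K1 cells at 16 h (37C, 5% CO2), fluorescence measured 1 h later; same wells as caspase-3/7 measurement.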

[17] = target: Cytochrome P450 2C19 (Homo sapiens) (UniProt P33261); experiment: Cytochrome P450 Family 2 Subfamily C Member 19 (CYP2C19) small molecule antagonists: luciferase reporter qHTS assay (AID 1671197); note: potency is the fitted concentration of half-maximal effect; nearly all actives have a fitted effect of over 65% in size
Method in brief: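 Quantitative high-throughput screen of the Tox21 library using CYP2C19 with proluciferin substrate. Reaction: NADPH regeneration, 37C, 1 h, after 10 min compound preincubation at room temperature. Readout: luminescence.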

[18] = target: Cytochrome P450 2C9 (Homo sapiens) (UniProt P11712); experiment: Cytochrome P450 Family 2 Subfamily C Member 9 (CYP2C9) small molecule antagonists: luciferase reporter qHTS assay (AID 1671198)
Sequence of UniProt P11712 (P11712 whole entry, looked up): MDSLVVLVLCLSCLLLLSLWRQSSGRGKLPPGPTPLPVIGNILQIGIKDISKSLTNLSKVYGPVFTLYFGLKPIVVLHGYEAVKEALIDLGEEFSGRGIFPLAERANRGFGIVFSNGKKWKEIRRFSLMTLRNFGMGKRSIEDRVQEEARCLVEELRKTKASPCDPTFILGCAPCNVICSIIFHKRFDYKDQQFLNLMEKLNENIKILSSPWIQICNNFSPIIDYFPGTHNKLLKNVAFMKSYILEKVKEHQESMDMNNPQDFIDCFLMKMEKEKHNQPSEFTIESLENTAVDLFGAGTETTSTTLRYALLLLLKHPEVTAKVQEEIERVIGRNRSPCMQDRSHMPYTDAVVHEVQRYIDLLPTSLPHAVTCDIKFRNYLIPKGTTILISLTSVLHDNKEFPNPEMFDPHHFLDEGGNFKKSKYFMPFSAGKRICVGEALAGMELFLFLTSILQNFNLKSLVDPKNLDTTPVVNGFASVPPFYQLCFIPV
Method in brief: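 Enzyme-substrate mix preincubated with compound 10 min at room temperature; reaction started with NADPH regeneration solution, 1 h 37C. Luminescent luciferin product read after 20 min detection reagent.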

[19] = target: Cytochrome P450 1A2 (Homo sapiens) (UniProt P05177); experiment: Cytochrome P450 Family 1 Subfamily A Member 2 (CYP1A2) small molecule antagonists: luciferase reporter qHTS assay (AID 1671199); note: nearly all actives have a fitted effect of over 50% in size; note: potency is the fitted concentration of half-maximal effect
Sequence of UniProt P05177 (P05177 whole entry, looked up): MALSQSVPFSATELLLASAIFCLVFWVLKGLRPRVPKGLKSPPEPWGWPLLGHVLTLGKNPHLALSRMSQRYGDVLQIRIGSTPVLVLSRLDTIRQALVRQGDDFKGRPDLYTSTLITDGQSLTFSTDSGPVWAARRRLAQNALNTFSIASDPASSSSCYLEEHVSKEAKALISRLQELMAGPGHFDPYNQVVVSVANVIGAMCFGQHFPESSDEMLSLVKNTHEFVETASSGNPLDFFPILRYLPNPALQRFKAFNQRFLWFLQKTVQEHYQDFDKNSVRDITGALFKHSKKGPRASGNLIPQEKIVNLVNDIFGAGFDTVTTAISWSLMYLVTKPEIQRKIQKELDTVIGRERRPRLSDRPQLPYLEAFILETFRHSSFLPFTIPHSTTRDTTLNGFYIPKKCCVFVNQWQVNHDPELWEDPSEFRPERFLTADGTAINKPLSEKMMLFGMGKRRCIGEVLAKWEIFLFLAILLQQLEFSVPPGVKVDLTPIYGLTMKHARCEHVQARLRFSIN
Method in brief: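 Human CYP1A2 activity measured with a P450-Glo proluciferin substrate; compounds in DMSO preincubated 10 min at room temperature with enzyme-substrate mix, then NADPH regeneration system added for 1 h. Luciferin detection reagent, 20 min, luminescence read.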

[20] = qHTS assay for small molecule agonists of the p53 signaling pathway (AID 651631; calls by dose curve; note: nearly all actives have a fitted effect of over 15% in size); settings: HCT-116 p53RE-bla reporter, beta-lactamase FRET ratio, 16 h; activation: at 73.3 µM (top of the series) unless noted
Method in brief: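 Readout was fluorescence from the LiveBLAzer FRET substrate, applied for 2 h at room temperature after 16 h compound exposure at 37 °C. Cells were the p53RE-bla HCT-116 line, with beta-lactamase driven by p53 response elements.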

[21] = qHTS assay to identify small molecule antagonists of the estrogen receptor alpha (ER-alpha) signaling pathway - cell viability counter screen (AID 743074; calls by dose curve;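 note: HEK293 cells carrying ER-alpha-UAS-bla reporter stimulated with 17beta-estradiol; potency is the fitted concentration of half-maximal effect; nearly all actives have a fitted effect of over 45% in size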)
[22] = qHTS assay to identify small molecule antagonists of the estrogen receptor alpha (ER-alpha) signaling pathway using the BG1 cell line - cell viability counter screen (AID 743081); settings: BG1Luc4E2 viability, CellTiter-Fluor, 22 h; activity change, negative = cytotoxicity: at 70.3 µM (top of the series) unless noted;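 note: compound given together with 17beta-estradiol as the ER stimulus; nearly all actives have a fitted effect of over 45% in size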
[23] = qHTS assay for small molecule activators of the heat shock response signaling pathway (AID 743210; active = well fitted activation curve with a large enough effect in the signal ratio in the repeat runs, with a control signal flat, not every such curve was filed as active; inconclusive = weak or mixed curves; the % refers to the signal ratio;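 note: HeLa cells with beta-lactamase reporter driven by heat shock elements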); settings: HeLa HSE-bla reporter, beta-lactamase ratio, 5 h; activation: at 62.6 µM (top of the series) unless noted
Method in brief: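 HeLa HSE-bla cells, overnight plating; cpd in DMSO 5 h, 37 C; LiveBLAzer B/G FRET substrate 2.5 h RT; fluorescence intensity read.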

[24] = target: Bile acid receptor (Homo sapiens) (UniProt Q96RI1); experiment: qHTS assay to identify small molecule antagonists of the farnesoid-X-receptor (FXR) signaling pathway (AID 743217; active = well fitted inhibition curve with a large enough effect in the signal ratio in the repeat runs, not every such curve was filed as active; inconclusive = weak or mixed curves, or effect the other way; inactive = no such curve, though single readings can be large or run the other way; the % refers to the signal ratio); settings: HEK293T FXR-UAS-bla, beta-lactamase ratio, CDCA-stimulated, 16 h; activity change, negative = inhibition: at 62.6 µM (top of the series) unless noted
Sequence of UniProt Q96RI1 (Q96RI1 whole entry, looked up): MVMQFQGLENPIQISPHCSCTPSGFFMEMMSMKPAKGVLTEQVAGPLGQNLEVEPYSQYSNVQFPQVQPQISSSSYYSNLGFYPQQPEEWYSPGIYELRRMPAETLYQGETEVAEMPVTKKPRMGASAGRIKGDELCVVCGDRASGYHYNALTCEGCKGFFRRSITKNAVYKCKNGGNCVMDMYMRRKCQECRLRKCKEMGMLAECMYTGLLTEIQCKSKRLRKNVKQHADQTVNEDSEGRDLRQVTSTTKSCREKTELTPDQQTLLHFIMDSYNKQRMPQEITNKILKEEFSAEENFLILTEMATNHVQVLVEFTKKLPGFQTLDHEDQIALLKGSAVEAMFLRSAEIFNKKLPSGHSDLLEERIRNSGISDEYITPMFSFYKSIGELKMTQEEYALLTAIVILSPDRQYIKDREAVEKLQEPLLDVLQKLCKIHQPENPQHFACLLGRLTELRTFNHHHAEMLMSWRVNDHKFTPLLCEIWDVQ
Method in brief: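 FXR-UAS-bla HEK 293T cells pre-incubated 5 h at 37 °C, then exposed to compounds with chenodeoxycholic acid (50 uM final) for 16 h at 37 °C. Beta-lactamase reporter read by LiveBLAzer B/G FRET substrate fluorescence after 2 h at room temperature.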

[25] = qHTS assay to identify small molecule agonists of the vitamin D receptor (VDR) signaling pathway - cell viability counter screen (AID 743224); note: nearly all actives have a fitted effect of over 50% in size
Method in brief: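 VDR-bla cells were preincubated 4 h at 37C/5% CO2, then exposed to compounds for 16 h. After the 2 h room-temperature bla FRET read, CellTiter-Glo was added to the same wells and luminescence read after 30 min.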

[26] = qHTS assay to identify small molecule agonists of the constitutive androstane receptor (CAR) signaling pathway - cell viability counter screen (AID 1224836); note: nearly all actives have a fitted effect of over 45% in size
Method in brief: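 Cell viability multiplexed with the CAR agonist screen: CellTiter-Fluor fluorescence after 23 hr at 37 C. HepG2-CYP2B6-hCAR cells got compounds at 15 concentrations with PK11195 at 0.75 uM final.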

[27] = qHTS assay to identify small molecule antagonists of the sonic hedgehog signaling (Shh) pathway - cell viability counter screen (AID 1259367); note: nearly all actives have a fitted effect of over 55% in size
Method in brief: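 Cells: 3T3 Gli1-Luc, 2,000/well, 4 hr pre-incubation. Compounds in DMSO, then conditioned medium. Incubation 24 hr, 37C, 5% CO2. CellTiter-Fluor at 23 hr, 1 hr, fluorescence.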

[28] = qHTS assay to identify small molecule agonists of the TGF-beta/Smad signaling pathway - cell viability counter screen (AID 1346829)
Method in brief: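 Same-well cytotoxicity: CellTiter-Glo added after the 2 hr room-temperature beta-lactamase substrate step, luminescence measured 30 min later; cells had 5 hr of compound at 37 C.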

[29] = target: Cytochrome P450 2D6 (Homo sapiens) (UniProt P10635); experiment: Cytochrome P450 Family 2 Subfamily D Member 6 (CYP2D6) small molecule antagonists: luciferase reporter qHTS assay (AID 1671196)
Sequence of UniProt P10635 (P10635 whole entry, looked up): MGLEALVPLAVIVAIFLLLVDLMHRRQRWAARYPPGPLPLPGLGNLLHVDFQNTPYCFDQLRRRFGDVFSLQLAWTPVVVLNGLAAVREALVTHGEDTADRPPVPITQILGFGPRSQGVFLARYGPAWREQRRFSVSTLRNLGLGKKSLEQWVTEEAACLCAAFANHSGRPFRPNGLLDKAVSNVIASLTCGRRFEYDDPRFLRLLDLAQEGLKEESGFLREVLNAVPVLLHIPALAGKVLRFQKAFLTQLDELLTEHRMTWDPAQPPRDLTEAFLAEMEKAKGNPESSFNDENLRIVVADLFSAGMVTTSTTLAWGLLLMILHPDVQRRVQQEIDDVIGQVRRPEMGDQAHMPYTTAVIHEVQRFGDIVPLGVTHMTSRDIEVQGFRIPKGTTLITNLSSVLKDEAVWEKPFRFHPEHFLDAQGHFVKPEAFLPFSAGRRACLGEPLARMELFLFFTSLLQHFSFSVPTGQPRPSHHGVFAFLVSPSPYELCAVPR
Method in brief: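 CYP2D6 enzyme–substrate mix was held with compound for 10 min at room temperature, then NADPH regeneration solution was added and the reaction ran 1 h at room temperature. Luciferin product was detected by luminescence after 20 min with detection reagent.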

[30] = target: Voltage-gated inwardly rectifying potassium channel KCNH2 (Homo sapiens) (UniProt Q12809); experiment: Human Ether-a-go-go-Related Gene (hERG) channel small molecule antagonists: fluorescence cell-based qHTS assay (AID 1671200); note: nearly all actives have a fitted effect of over 50% in size
Sequence of UniProt Q12809 (Q12809 whole entry, looked up): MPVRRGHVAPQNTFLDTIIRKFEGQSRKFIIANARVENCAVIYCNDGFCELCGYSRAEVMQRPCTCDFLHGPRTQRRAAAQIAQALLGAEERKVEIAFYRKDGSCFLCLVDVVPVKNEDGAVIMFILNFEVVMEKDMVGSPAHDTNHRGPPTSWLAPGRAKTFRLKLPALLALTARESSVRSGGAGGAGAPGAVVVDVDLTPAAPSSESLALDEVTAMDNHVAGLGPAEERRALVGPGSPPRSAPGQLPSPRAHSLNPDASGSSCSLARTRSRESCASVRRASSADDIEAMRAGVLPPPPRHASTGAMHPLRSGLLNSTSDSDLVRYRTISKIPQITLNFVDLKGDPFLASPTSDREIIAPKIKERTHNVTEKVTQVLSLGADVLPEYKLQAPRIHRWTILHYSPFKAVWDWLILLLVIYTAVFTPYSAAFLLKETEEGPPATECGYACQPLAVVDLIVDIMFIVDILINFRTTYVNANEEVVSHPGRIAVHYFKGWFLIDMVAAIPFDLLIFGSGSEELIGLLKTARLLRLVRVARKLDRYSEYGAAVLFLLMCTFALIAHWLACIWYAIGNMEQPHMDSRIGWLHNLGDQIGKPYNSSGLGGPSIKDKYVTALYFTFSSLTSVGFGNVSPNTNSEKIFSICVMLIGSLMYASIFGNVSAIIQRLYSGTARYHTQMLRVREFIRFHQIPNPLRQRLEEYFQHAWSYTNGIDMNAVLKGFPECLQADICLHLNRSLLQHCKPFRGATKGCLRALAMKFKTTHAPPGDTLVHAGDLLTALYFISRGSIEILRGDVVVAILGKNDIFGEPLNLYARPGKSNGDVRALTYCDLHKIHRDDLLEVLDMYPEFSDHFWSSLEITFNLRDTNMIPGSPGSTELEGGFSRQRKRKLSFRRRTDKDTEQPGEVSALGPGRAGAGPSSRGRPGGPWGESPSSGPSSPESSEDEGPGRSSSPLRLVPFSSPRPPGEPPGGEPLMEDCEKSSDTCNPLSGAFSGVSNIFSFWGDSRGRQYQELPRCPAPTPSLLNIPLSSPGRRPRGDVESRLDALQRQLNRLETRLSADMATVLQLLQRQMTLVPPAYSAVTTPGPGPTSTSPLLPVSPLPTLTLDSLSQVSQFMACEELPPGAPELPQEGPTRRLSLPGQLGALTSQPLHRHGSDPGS
Method in brief: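 Thallium flux as potassium surrogate: FluxOR II dye loaded 1 h at room temperature into hERG-expressing U2OS cells, then stimulus buffer added after 10 min. Kinetic 480 nm excitation/540 nm emission read, 2 min.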
Tags give direction and shape of the fitted curve or compound fluorescence and quenching.

O=C(O)c1cc([N+](=O)[O-])ccc1NCCCc1ccccc1
Potency [1]: inconclusive: 18.8 µM [cytotoxic, partial curve, poor fit]

O=C(O)c1snc(Cl)c1Cl
ratio activity, negative = MMP loss [2]: inconclusive: 23.8% | Potency [3]: inconclusive: 43.6 µM [inhibitor, partial curve] | Potency [4]: inconclusive: 77 µM [cytotoxic, partial curve, poor fit] | Potency [5]: inconclusive: 61.1 µM [inhibitor, single point] | Potency [6]: inactive | Potency [7]: inactive | Potency [8]: inactive | Potency [9]: inactive | Potency [10]: inactive | Potency [11]: inactive | Potency [12]: inconclusive: 100 µM [inhibitor, single point] | Potency [13]: inactive | Potency [14]: inactive | Potency [15]: inactive | Potency [16]: inactive | Potency [17]: inconclusive: 71 µM [inhibitor, partial curve] | Potency [18]: inconclusive: 71 µM [inhibitor, partial curve] | Potency [19]: inconclusive: 39.9 µM [inhibitor]

COC(C(=O)O)c1ccccc1 (configuration not stated)
Potency [20]: inactive | Potency [21]: inconclusive: 54.9 µM [rising, single point] | Potency [22]: inactive | Potency [23]: inactive | Potency [24]: inactive | Potency [25]: inactive | Potency [11]: inactive | Potency [26]: inactive | Potency [27]: inactive | Potency [28]: inactive | Potency [29]: inconclusive: 39.9 µM [inhibitor, partial curve] | Potency [19]: inactive | Potency [30]: inactive
